Laboratory results taken from the supplement of paper PMC12217912.
Some of the results follow. Sequences were assembled here from the parent chain. Values near 0.05 are background.

B1: TEV protease; numbered along this chain (parent)
chain: MGESLFKGPRDYNPISSSICHLTNESDGHTTSLYGIGFGPFIITNKHLFRRNNGTLVVQSLHGVFKVKDTTTLQQHLVDGRDMIIIRMPKDFPPFPQKLKFREPQREERICLVTTNFQTKSMSSMVSDTSCTFPSGDGIFWKHWIQTKDGQCGSPLVSTRDGFIVGIHSASNFTNTNNYFTSVPKNFMELLTNQEAQQWVSGWRLNADSVLWGGHKVFMVKPEEPFQPVKEATQL

Variants of: B1
Assay: raw area under fraction-flipped curve 0-4 h after induction (AUC4h, not background-subtracted), DNA-recorder readout of cleavage of the substrate (dimensionless); higher = more cleavage of the substrate by the protease variant
Details: temperature: 34 °C; time window: 0-4 h after rhamnose induction
Protocol: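 In vivo DNA recorder in E. coli TOP10(DE3) ΔrhaA at 34 °C. Each TEVp single-site mutant (parent TEVp 0) is paired with a single-site variant of the 7-mer TEVs (canonical ENLYFQ|S). The substrate sits between flexible linkers in a Bxb1-sfGFP-TEVs-SsrA fusion, so cleavage stabilises Bxb1 and speeds flipping of a recombination array, read by NGS. The value is the raw area under the fraction-flipped curve over 0-4 h after rhamnose induction (AUC4h), with ≥20 reads per time point. It is not background-subtracted; inactive controls average about 0.047.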
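Also: Bxb1 expression induced with 0.2% (w/v) L-rhamnose at OD600 near 0.5, cultures sampled hourly, flipped fraction per protease–substrate barcode pair counted by paired-end Illumina sequencing.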

Variant	area with substrate ENAYFQS	area with substrate ENCYFQS	area with substrate ENDYFQS	area with substrate ENEYFQS	area with substrate ENFYFQS	area with substrate ENHYFQS	area with substrate ENMYFQS	area with substrate ENPYFQS	area with substrate ENQYFQS	area with substrate ENRYFQS	area with substrate ENSYFQS	area with substrate ENVYFQS	area with substrate ENWYFQS	area with substrate ENYYFQS	area with substrate ENIYFQS	area with substrate ENKYFQS	area with substrate ENNYFQS	area with substrate ENTYFQS	area with substrate ENGYFQS
Q146E	0.0582	0.0571	0.0453	0.066	0.0801	0.059	0.0789	0.0819	0.0619	0.0714	0.076	0.0834	0.0484	0.0596	–	–	–	–	–
Q146G	0.0566	–	0.0722	0.0482	–	–	0.0782	0.0327	0.063	–	0.092	–	–	–	0.102	0.0589	0.07	–	–
Y179P	0.0558	–	–	0.058	–	–	–	–	0.0605	0.0449	0.0529	0.0586	–	–	0.0459	0.0623	–	0.0499	–
Y179G	0.0479	–	0.0613	–	0.0188	0.0528	–	–	0.051	0.0705	0.0525	0.0766	0.0433	–	–	–	–	–	–
Y179H	0.0452	0.0605	0.0581	0.0452	0.0569	0.064	0.0671	–	–	0.0528	0.051	0.0492	–	0.0486	0.0721	–	0.0763	0.0678	–
N177R	0.0541	–	0.0411	0.0902	–	0.0523	–	–	0.0444	–	0.132	–	–	–	0.137	–	0.0678	–	–
N177F	0.0532	0.0692	0.0764	–	0.0692	0.0662	0.0697	0.0651	0.0585	0.0599	0.066	0.0734	–	–	0.0631	0.0808	0.0612	0.0647	0.061
N177W	0.051	–	–	–	–	0.0666	0.0624	–	0.0568	–	–	–	–	0.0573	–	–	0.0245	0.0612	–
S171W	0.0628	–	–	0.0599	0.0698	0.0228	–	–	0.0548	–	0.0613	–	–	–	–	0.0831	–	–	–
I167Q	0.0902	–	–	0.0516	0.0224	0.0625	0.0546	–	0.055	0.0668	0.0661	0.0853	–	–	0.0526	–	–	0.0858	0.06
I167M	0.055	0.065	0.0559	–	–	0.0643	–	–	0.0657	0.0909	0.0699	–	0.0663	–	–	–	–	0.0545	–
I167L	0.0666	0.0612	0.0613	0.0526	–	0.0578	0.0695	0.0887	0.0686	0.0583	0.0688	0.0661	0.0433	–	0.0529	0.0622	–	0.0521	0.0814
I167P	0.0535	0.0496	0.0535	0.0537	0.0411	–	–	–	0.0544	–	0.053	–	–	–	0.056	0.0499	–	–	0.0388
W144E	0.0536	–	0.0651	0.0516	–	0.0666	–	0.0747	0.0651	–	0.0588	0.0614	0.0659	–	0.0799	0.072	0.0609	0.0584	0.0901
F173V	0.0474	–	0.0611	0.0509	0.09	0.0666	0.0746	–	0.0613	0.0613	0.0523	0.054	–	–	–	0.0555	0.0607	0.0605	0.0589
F173P	0.0454	–	0.0606	0.0632	0.0585	–	–	–	0.0666	–	0.0573	0.0576	0.0578	–	–	–	–	0.0635	–
S169H	0.0539	0.0644	0.0644	0.0602	–	–	0.0467	–	0.0403	0.0634	–	0.058	0.0359	0.0593	0.0676	–	0.0482	–	0.0582
D149F	0.0544	0.0575	0.0365	–	0.0501	0.0539	–	–	0.0767	0.0658	0.0615	0.0651	–	0.0354	0.0827	0.0536	–	0.06	–
D149E	0.0463	0.0424	0.0534	–	0.0565	0.0591	–	–	0.0545	–	–	0.0578	0.0609	–	0.0828	–	–	0.0567	0.0582
A170P	0.0684	–	–	–	0.0545	–	–	0.0617	–	–	0.0718	–	–	–	–	0.0517	–	–	0.0646
G162T	0.0576	0.064	–	0.0593	0.0371	0.0147	–	–	0.0533	–	0.0547	–	–	0.0648	–	0.0516	–	–	0.0779
G162Y	0.063	–	0.0548	0.069	0.0729	0.0546	–	–	0.0674	0.0514	0.0589	0.0544	0.0412	0.0559	–	0.0832	–	0.0325	–
G162E	0.0599	0.0533	0.0694	0.0547	–	0.0708	–	0.0575	0.0951	0.0387	–	–	0.0646	–	–	0.0713	–	0.0485	–
G162Q	0.0731	0.0606	0.0457	0.0606	0.0615	–	–	–	0.0826	0.0511	0.0603	0.0789	–	–	–	–	0.0529	0.0572	0.0585
T174M	0.0539	0.0585	0.0361	0.0614	0.0621	–	–	0.0591	0.0518	0.0342	–	0.0721	–	–	–	–	0.046	–	0.0511
D137M	0.0662	0.0715	0.0606	0.0671	0.0617	0.0386	0.0776	0.0633	0.059	0.0613	0.062	0.0888	–	0.0596	–	0.0486	0.0738	0.0603	0.058
K185Y	0.05	0.0728	–	0.0543	0.0549	–	0.0382	0.0617	0.0601	0.0576	–	0.0685	0.0469	0.0494	0.134	0.0775	0.0585	0.062	0.0512
I145A	0.0605	–	0.055	0.0704	0.0713	–	–	–	0.0599	0.0427	0.0599	0.107	–	–	–	–	0.0451	–	0.0536
Q151V	0.0648	0.0647	0.0599	0.06	0.0604	0.0631	–	–	0.0642	–	0.059	0.0817	–	0.0523	–	–	0.0657	–	–
Q151K	0.0667	0.0618	–	0.0677	0.0655	0.0574	0.0534	–	0.0681	0.0314	–	0.0702	–	0.0485	–	0.0777	0.0921	–	0.0584
